Experimental data: the antibiotic and cytotoxicity screens of Wong et al. (2023)
The other results are listed elsewhere or left out.

Tests used:
HSkMC = human skeletal muscle cells; assay: cytotoxicity call (relative viability < 0.9); conditions: 10 µM
HepG2 = assay: cytotoxicity call (relative viability < 0.9); conditions: 10 µM
S. aureus RN4220 = assay: growth inhibition call (relative growth <= 0.2); conditions: 50 µM

| Compound | cytotoxicity call (HSkMC) | cytotoxicity call (HepG2) | growth inhibition call (S. aureus RN4220) |
| --- | --- | --- | --- |
| C[C@@H]1CN([C@@H](C)CO)S(=O)(=O)c2ccc(C#Cc3ccccc3)cc2O[C@@H]1CN(C)S(=O)(=O)c1cn(C)cn1 | inactive | inactive | inactive |
| COc1ccc(S(=O)(=O)N(C)C[C@H]2OCCCC[C@H](C)Oc3ccc(NS(=O)(=O)c4cn(C)cn4)cc3C(=O)N([C@H](C)CO)C[C@H]2C)cc1 | inactive | inactive | inactive |
| C[C@@H]1CN([C@@H](C)CO)C(=O)c2cc(NC(=O)Nc3ccc(C(F)(F)F)cc3)ccc2O[C@@H](C)CCCCO[C@H]1CN(C)Cc1ccc(C(=O)O)cc1 | inactive | inactive | inactive |
| CCOc1nc2c(ncn2C)c(=O)n1C | inactive | inactive | inactive |
| C[C@@H]1CN([C@H](C)CO)C(=O)Cc2cc(NC(=O)Cn3cnnn3)ccc2O[C@@H]1CN(C)Cc1ccc(Cl)c(Cl)c1 | inactive | inactive | inactive |
| COCCOC(=O)N1C(=O)[C@@]2(c3cc(C#CCC(C(=O)OC)C(=O)OC)ccc31)[C@H](c1ccc(OCCO)cc1)N1[C@H](c3ccccc3)[C@H](c3ccccc3)OC(=O)[C@H]1[C@@H]2C(=O)N1CCc2cc(OC)c(OC)cc2C1 | inactive | inactive | inactive |
| CC(C)NC(=O)N(C)C[C@@H]1Oc2c(NS(=O)(=O)c3cn(C)cn3)cccc2C(=O)N([C@H](C)CO)C[C@H]1C | inactive | inactive | inactive |
| C/C=C/C1=CC(=O)[C@H](O)[C@H]1O | inactive | inactive | inactive |
| CCC(=O)c1c(O)cc(O)cc1O | inactive | inactive | inactive |
| C[C@H]1CCCCO[C@H](CN(C)CC2CC2)[C@@H](C)CN([C@@H](C)CO)C(=O)c2cc(NC(=O)C3CCCCC3)ccc2O1 | inactive | inactive | inactive |
| Cc1noc(C)c1NC(=O)Nc1ccc2c(c1)CC(=O)N([C@@H](C)CO)C[C@H](C)[C@H](CN(C)S(=O)(=O)c1c(C)noc1C)O2 | inactive | inactive | inactive |
| C[C@H]1CN([C@@H](C)CO)C(=O)Cc2cc(NC(=O)C3CC3)ccc2O[C@H]1CN(C)C(=O)Nc1ccccc1 | inactive | inactive | inactive |
| OC[C@@H](O)[C@@H](O)[C@H](O)[C@@H](O)CO | inactive | inactive | inactive |
| CCOC(=O)C[C@@H](N)c1cccc(O)c1 | inactive | inactive | inactive |
| CC(=O)N1[C@@H]2c3ccc(-c4ccccc4)c(=O)n3C[C@H]1[C@H](CO)[C@H]2C(=O)N1CCN(C)CC1 | inactive | inactive | inactive |
| C[C@H](CO)N1C[C@H](C)[C@H](CN(C)C(=O)CCC(F)(F)F)OCCCC[C@H](C)Oc2ccc(NC(=O)Cc3ccccc3)cc2C1=O | inactive | inactive | inactive |
| C[C@H](CO)N1C[C@H](C)[C@@H](CN(C)S(=O)(=O)c2cn(C)cn2)Oc2c(NC(=O)C3CC3)cccc2C1=O | inactive | inactive | inactive |
| O=C(O)C1CSCN1 (stereo not given) | inactive | inactive | inactive |
| C[C@H](CO)N1C[C@H](C)[C@H](CN(C)Cc2ccc(C(F)(F)F)cc2)Oc2ccc(NC(=O)Nc3ccc(F)cc3)cc2C1=O | inactive | inactive | inactive |
| Cc1noc(C)c1NC(=O)Nc1ccc2c(c1)C(=O)N([C@@H](C)CO)C[C@@H](C)[C@@H](CN(C)Cc1ccc(Cl)c(Cl)c1)OCCCC[C@@H](C)O2 | inactive | active | inactive |
